# Data taken from PubChem BioAssay AID995 (National Center for Advancing Translational Sciences (NCATS), 2007).
# In all, about 72,000 compounds went through this assay and about 710 (0.99%) were called active. Inconclusive means that the source gave no clear call. Such entries were picked first, then a sample of the others. The call rests on the fitted dose curve; in most records, active means well fitted inhibition curve with a large enough effect; inconclusive means small, poorly fitted or top-dose-only effect; inactive means no such curve, though single readings can be large or run the other way. No potency is given beside an inconclusive call; the fits are too rough.
# Experiment: qHTS Assay for Inhibitors of the ERK Signaling Pathway using a Homogeneous Screening Assay; further: nearly all actives have a fitted effect of over 55% in size
# Conditions: HEK293-V1b, vasopressin-stimulated pERK AlphaScreen; activity, negative = inhibition: at 57.5 µM (top of the series) unless noted
# Procedure, shortened: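 HEK293 cells stably expressing V1b receptor, seeded overnight in 1% FBS, were treated with compounds for 30 min at 37C, then stimulated 5 min with 25 nM vasopressin; phospho-ERK read by AlphaScreen SureFire after lysis.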
# On the % scale 0 is the no-effect control and ±100 the full control effect; potency means the concentration at half of the fitted maximal effect; tags describe the fitted curve by direction and shape.
SMILES,Potency,"activity, negative = inhibition"
COc1ccc(CCNc2oc(-c3ccc(OC)c(OC)c3)nc2C#N)cc1,"inconclusive [inhibitor, partial curve]",–
Cc1cccn2c(=O)c3cc(C#N)c(=O)n(CCCN4CCOCC4)c3nc12,"inconclusive [inhibitor, partial curve]",–
COCCCN1C(=O)C(=O)/C(=C(/O)c2ccc(OC(C)C)cc2)C1c1cccnc1 (stereo not drawn),"inconclusive [inhibitor, partial curve]",–
Cc1cc(C)n(/N=C/c2c[nH]c3ccccc23)c(=O)c1,–,inconclusive: -34.2% [inhibitor]
Cc1ccc(Nc2nc(C(=O)NCc3ccco3)cs2)cc1,"inconclusive [inhibitor, full curve, poor fit]",–
CCOC(=O)c1c(NC(=O)Cc2cccs2)sc(C)c1C,"inconclusive [inhibitor, partial curve]",–
CCCCCCn1c(SCCC)nc2c1c(=O)[nH]c(=O)n2C,"inconclusive [inhibitor, full curve, poor fit]",–
COc1ccc(NC(=O)Nc2nccs2)cc1,–,inactive: -16.9%
O=C(O)C1=CCCN(CCON=C(c2ccccc2)c2ccccc2)C1,"inconclusive [inhibitor, full curve, poor fit]",–
COc1cc2cc(C)c(SCC(=O)N3CCOCC3)nc2cc1OC,"inconclusive [inhibitor, single point]",–
Cc1nc2ccccc2c(=O)n1/N=C/c1ccc(N(C)C)cc1,"inconclusive [inhibitor, single point]",–
Cn1c(=O)c2c(nc(SCCN3CCOCC3)n2Cc2cccc3ccccc23)n(C)c1=O,"inconclusive [inhibitor, single point]",–
CC(=O)OC[C@@H]1O[C@@H](O/N=C2/C[C@@H](O)[C@@H](O)[C@@H]3[C@@H]4C(=O)N(C[C@@H]5CCCO5)C(=O)[C@H]4CC[C@H]23)[C@H](OC(C)=O)[C@H](OC(C)=O)[C@@H]1OC(C)=O,–,inactive: 5.5% [at 11.5 µM]
CCN(C(=O)c1ccc(C(C)(C)C)cc1)c1nnc(Cn2nnc3ccccc32)s1,"inconclusive [inhibitor, full curve]",–
CCC(C(=O)Nc1cc(C)nn1-c1nc(C)cc(C)n1)c1ccccc1 (stereo not drawn),–,inconclusive: -30.9% [inhibitor]
O=C(CSC1=NCCS1)Nc1ccnc2ccccc12,"inconclusive [inhibitor, partial curve]",–
CCN(CCCNC(=O)C1CCCN(S(=O)(=O)c2cnc[nH]2)C1)c1ccccc1 (stereo not drawn),"inconclusive [inhibitor, single point]",–
CC(=O)n1nc(-c2ccco2)nc1N,"inconclusive [inhibitor, partial curve]",–
COc1ccccc1-c1nc(Nc2ccncc2)c2ccccc2n1,"inconclusive [inhibitor, full curve]",–
c1ccc(-c2noc(-c3cccnc3)n2)cc1,–,inactive: 5.98%
COc1ccc(CCNC(=O)CC2Nc3ccccc3NC2=O)cc1 (stereo not drawn),"inconclusive [inhibitor, single point]",–
O=c1c(-c2ccc(Cl)cc2)nc2cnc(N3CCOCC3)nc2n1C[C@H]1CCCO1,–,inactive: 7.33%

SMILES,Potency,"activity, negative = inhibition"
OC(COc1ccc2ccccc2c1Br)Cn1ccnc1 (stereo not drawn),"inconclusive [inhibitor, partial curve]",–
Cn1c(COc2ccccc2)nnc1SCCN1CCOCC1,"inconclusive [inhibitor, partial curve]",–
N#C/C(C(=O)c1ccccc1)=C1/CCCN1,"inconclusive [inhibitor, full curve, poor fit]",–
O=C(NCc1cccnc1)c1ccc(COc2ccccc2Br)o1,–,inactive: -15.7%
O=C(c1ccncc1)N1CCC2(CC1)CCN(c1ccccn1)CC2,"inconclusive [inhibitor, single point]",–
O=C(NCC1CCCO1)c1sc(=S)n2c1[nH]c(=O)c1ccc(C(=O)N3CCCCC3)cc12 (stereo not drawn),–,inactive: 16.1%
CCc1ccccc1NC(=O)c1cc2sccc2n1C,"inconclusive [inhibitor, single point]",–
c1nc2sc3c(c2c2nnnn12)CCC3,–,inactive: -12.3%
CC(=O)CSc1nnc(CSc2ncccn2)n1C1CCCCC1,"inconclusive [inhibitor, single point]",–
Cc1noc(C)c1CSc1nnc2ccc3ccccc3n12,"inconclusive [inhibitor, partial curve]",–
COc1ccc(C2CC(c3cccc(OC)c3)n3nc(N)nc3N2)cc1 (stereo not drawn),"inconclusive [inhibitor, partial curve]",–
O=C(Nc1ccc2c(c1)oc1ccccc12)N1CCOCC1,–,inactive: 10.3%
COc1cc2[nH]c(=S)n(CCN3CCOCC3)c(=O)c2cc1OC,"inconclusive [inhibitor, partial curve]",–
COc1cccc(-c2cc(NCc3cccs3)ncn2)c1,active: 25.1 µM,–
COC(=O)c1ccccc1NC(=O)NCc1ccco1,"inconclusive [inhibitor, single point]",–
COc1cc2c(cc1OC)C(COc1ccc(F)cc1)N(C(=O)c1ccco1)CC2 (stereo not drawn),"inconclusive [inhibitor, partial curve]",–
O=C(O)CCCn1c(=O)[nH]c2ccccc2c1=O,"inconclusive [inhibitor, single point]",–
C=CCn1c(SCC(=O)Nc2ccc(C(=O)OCC)cc2)nnc1-c1sc(N)nc1C,"inconclusive [inhibitor, partial curve]",–
N#C/C(=C\c1ccc(O)c(O)c1)C(=O)NCc1ccccc1,"inconclusive [inhibitor, partial curve, poor fit]",–
CCn1c(SCC(=O)N2CCCc3ccccc32)nnc1-c1c[nH]c2ccccc12,"inconclusive [inhibitor, single point]",–
COc1ccc(-c2cc(=O)c3ccccc3o2)cc1OC,"inconclusive [inhibitor, partial curve]",–
